These results are taken from PubChem BioAssay AID1745853 (National Center for Advancing Translational Sciences (NCATS), 2022).

Values joined by “and” are separate entries in the source; they are usually repeats but may differ in a detail not shown here. Identical values can stand only once. This is one part of the list. Further columns of the screen follow, without active or inactive calls.

Common to all, as to assay: Primary Screen for Target Class Profiling of Small Molecule Inhibitors of Methyltransferases
The target of assay [1] is Glycine N-methyltransferase (Homo sapiens) (UniProt Q14749). As to conditions: purified enzyme, MTase-Glo SAH luminescence; measured here: GNMT inhibition; at 40 µM; stronger effect = lower value. An outline of the steps: (§1)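 Each enzyme was reacted with SAM and its substrate, with compounds tested once at 40 uM; SAH formed was read by MTase-Glo luminescence.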
For assay [2], the target named is Guanidinoacetate N-methyltransferase (Homo sapiens) (UniProt Q14353). As to conditions: purified enzyme, MTase-Glo SAH luminescence; measured here: GAMT inhibition; at 40 µM; stronger effect = lower value. In short, it runs like this: as §1
The target in assay [3] is Histamine N-methyltransferase (Homo sapiens) (UniProt P50135). As to conditions: purified enzyme, MTase-Glo SAH luminescence; measured here: HNMT inhibition; at 40 µM; stronger effect = lower value. An outline of the steps:
as §1

Assay [4] has as its target Nicotinamide N-methyltransferase (Homo sapiens) (UniProt P40261). As to conditions: purified enzyme, MTase-Glo SAH luminescence; measured here: NNMT inhibition; at 40 µM; stronger effect = lower value. In short, it runs like this: as §1
The target in assay [5] is Phenylethanolamine N-methyltransferase (Homo sapiens) (UniProt P11086). Particulars: purified enzyme, MTase-Glo SAH luminescence; measured here: PNMT inhibition; at 40 µM; stronger effect = lower value. In short, it runs like this:
as §1
% is set by controls: 0 for no effect and ±100 for the full control effect.

As to `Cc1ccc(C)c(NC(=O)N2Cc3ccccc3-n3cccc3C2c2ccccc2Cl)c1` (stereo unspecified), the activity change, negative = inhibition in assay [1] was 12.9%; in assay [2], 0%; in assay [3], 3.03%; in assay [4] it was 6.02%; in assay [5], 7.91%.

For `CCOc1ccccc1NC(=O)N1Cc2ccccc2-n2cccc2C1c1ccc(N(C)C)cc1` (stereo unspecified), the activity change, negative = inhibition is 4.93% in assay [1]; 1.87% in assay [2]; -10.4% in assay [3]; -3.54% in assay [4]; 1.43% in assay [5].

With `COc1ccc(C)cc1NC(=O)N1Cc2ccccc2-n2cccc2C1c1ccc(F)cc1` (stereo unspecified), the activity change, negative = inhibition is -0.465% in assay [1]; 2.76% in assay [2]; 5.49% in assay [3]; -1.7% in assay [4]; 3.83% in assay [5].

In the case of `CCCN(CCC)[C@@H]1CCc2ccc(O)cc2C1`, the activity change, negative = inhibition in assay [1] was 8.65%; in assay [2] it was 15.4%; in assay [3] it was -22.5%; in assay [4] it was -4.24%; in assay [5] it was 2.65%.

For the compound `Clc1cnc(Oc2ccc(Oc3ncc(Cl)cc3Cl)cc2)c(Cl)c1`, the activity change, negative = inhibition in assay [1] was -1.42%; in assay [2], 3.87%; in assay [3] it was 0.561%; in assay [4], -4.65%; in assay [5], 7.32%.

Turning to `CNCCc1ccc(O)c(O)c1`, the activity change, negative = inhibition in assay [1] was -30.4%; in assay [2] it was 2.81%; in assay [3], -40.9%; in assay [4] it was -4.87%; in assay [5], 0.505%.

Take `CCc1ccc(NC(=O)N2Cc3ccccc3-n3cccc3C2c2cccc(C)c2)cc1` (stereo unspecified): the activity change, negative = inhibition in assay [1] is 12.2%; in assay [2] it was 0%; in assay [3], 4.04%; in assay [4], 6.26%; in assay [5], 6.25%.

As to `O=C(Nc1ccc(F)cc1F)N1Cc2ccccc2-n2cccc2C1c1ccc(F)cc1` (stereo unspecified), the activity change, negative = inhibition is -1.45% in assay [1]; 0% in assay [2]; 1.45% in assay [3]; -3.2% in assay [4]; 5.98% in assay [5].

On to `CC(C)c1ccc(C2c3cccn3-c3ccccc3CN2C(=O)NCc2ccc(F)cc2)cc1` (stereo unspecified), for which the activity change, negative = inhibition in assay [1] is -5.16%; in assay [2], 4.05%; in assay [3] it was 4.28%; in assay [4] it was -4.36%; in assay [5], 0.008%.

On to `CC1c2cccn2-c2ccccc2CN1C(=O)Nc1ccc(Cl)cc1` (stereo unspecified), for which the activity change, negative = inhibition in assay [1] is 4.75%; in assay [2], -0.86%; in assay [3] it was 0.416%; in assay [4], -3.28%; in assay [5], 0.718%.

For `C=C[C@H]1CN2CC[C@H]1C[C@H]2[C@H](O)c1ccnc2ccccc12`, the activity change, negative = inhibition in assay [2] was 10.2%; in assay [4] it was -13.3%; in assay [5] it was -1.39%.

Consider `CCC1c2cccn2-c2ccccc2CN1C(=O)Nc1cc(Cl)ccc1C` (stereo unspecified), for which the activity change, negative = inhibition stood at 0.454% in assay [1]; 0% in assay [2]; 4.72% in assay [3]; 0.571% in assay [4]; 6.56% in assay [5].

For `CCOC(=O)c1cccc(NC(=O)N2Cc3ccccc3-n3cccc3C2c2cc(F)cc(F)c2)c1` (stereo unspecified), the activity change, negative = inhibition in assay [1] is -3.73%; in assay [2], 0%; in assay [3], 1.45%; in assay [4] it was 4.27%; in assay [5], 3.56%.

For `CC(C)c1ccc(C2c3cccn3-c3ccccc3CN2C(=O)NCc2ccco2)cc1` (stereo unspecified), the activity change, negative = inhibition was -9.06% in assay [1]; 1.19% in assay [2]; -3.51% in assay [3]; -10.1% in assay [4]; -5.54% in assay [5].

Take `O=C1NC2(CCN(Cc3ccccn3)C2)Oc2ccccc21` (stereo unspecified): the activity change, negative = inhibition in assay [1] is -10.2%; in assay [2] it was 1.1%; in assay [3], -0.15%; in assay [4], -5.71%; in assay [5], -35.6%.

Turning to `COc1ccc(NC(=O)N2Cc3ccccc3-n3cccc3C2c2cc(F)cc(F)c2)c(OC)c1` (stereo unspecified), the activity change, negative = inhibition in assay [1] is 13.9%; in assay [2], 0.185%; in assay [3] it was 8.14%; in assay [4] it was 4.14%; in assay [5], 8.54%.

Turning to `C/C=C(\C)C(=O)O[C@H]1CC2C(=C1C)[C@H]1OC(=O)[C@](C)(O)[C@]1(O)[C@H](OC(=O)CCC)C[C@@]2(C)OC(C)=O` (stereo partly specified), the activity change, negative = inhibition was -0.418% in assay [1]; 9.63% in assay [2]; 1.98% in assay [3]; -6.75% in assay [4]; 4.23% in assay [5].

As for `CN[C@@H]1C[C@@H](c2ccc(Cl)c(Cl)c2)c2ccccc21`, the activity change, negative = inhibition in assay [1] was 4.03%; in assay [2], 7.91%; in assay [3], -17.8%; in assay [4], -18.1%; in assay [5], 2.78%.

For the compound `COc1ccc(NC(=O)N2Cc3ccccc3-n3cccc3C2c2ccccc2C)cc1` (stereo unspecified), the activity change, negative = inhibition in assay [1] stood at 5.86%; in assay [2] it was 0%; in assay [3] it was 5.34%; in assay [4], 4.05%; in assay [5], 5.04%.

In the case of `Cc1cc(C)cc(NC(=O)N2Cc3ccccc3-n3cccc3C2c2ccc(N(C)C)cc2)c1` (stereo unspecified), the activity change, negative = inhibition was -2.18% in assay [1]; 1.4% in assay [2]; -9.03% in assay [3]; -6.57% in assay [4]; -5.38% in assay [5].

For `Cc1cccc(C2c3cccn3-c3ccccc3CN2C(=O)Nc2ccc3c(c2)OCCO3)c1` (stereo unspecified), the activity change, negative = inhibition in assay [1] came to 6.52%; in assay [2], 0%; in assay [3], 6.47%; in assay [4], 3.69%; in assay [5], 4.41%.

As for `NCCc1ccc(S(=O)(=O)F)cc1`, the activity change, negative = inhibition is -7.99% in assay [1]; 4.13% in assay [2]; -1.5% in assay [3]; -9.5% in assay [4]; -31.6% in assay [5].

For `O=C(Nc1ccccc1F)N1Cc2ccccc2-n2cccc2C1c1cccs1` (stereo unspecified), the activity change, negative = inhibition was 5.38% in assay [1]; 1.39% in assay [2]; -4.23% in assay [3]; -10.6% in assay [4]; -3.03% in assay [5].

Turning to `CC1Oc2cc3c(-c4c(O)cc(O)c5c(O)c6c(cc45)OC(C)C(C)C6=O)c(O)cc(O)c3c(O)c2C(=O)C1C` (stereo unspecified), the activity change, negative = inhibition in assay [2] is -70.9%; in assay [4] it was -61.1%; in assay [5], -75.3%.

On to `Cc1cccc(NC(=O)N2Cc3ccccc3-n3cccc3C2C)c1C` (stereo unspecified), for which the activity change, negative = inhibition in assay [1] was 3.94%; in assay [2] it was 0.626%; in assay [3], 5.11%; in assay [4], -1.09%; in assay [5] it was 11.2%.

With `COC(=O)[C@@]12C(=O)C(C)C(=O)[C@]1(C)C(C)=C[C@H]1[C@]3(C=O)CC[C@H](OC(C)=O)C(C)(C)[C@H]3CC[C@@]12C` (stereo partly specified), the activity change, negative = inhibition in assay [1] is 0%; in assay [2], -11.6%; in assay [3] it was 0.293%; in assay [4], -23.2%; in assay [5], -4.14%.

As to `Cc1cccc(C2c3cccn3-c3ccccc3CN2C(=O)Nc2ccc(C)c(Cl)c2)c1` (stereo unspecified), the activity change, negative = inhibition in assay [1] was 4.99%; in assay [2], 2.97%; in assay [3] it was -1.98%; in assay [4] it was 1.45%; in assay [5] it was 1.46%.

As for `Fc1cc(F)c2c(c1)[C@H]1C=CC[C@H]1C(c1cccnc1)N2` (stereo partly specified), the activity change, negative = inhibition is -21.3% in assay [1]; -9.52% and 2.45% in assay [2]; 0.951% in assay [3]; -33% and -14.5% in assay [4]; -16.8% and 2.32% in assay [5].

`OCC1CN(c2ncccn2)CC12CCNCC2` (stereo unspecified): the activity change, negative = inhibition in assay [1] is -2.11%; in assay [2], -6.42%; in assay [3], -4.26%; in assay [4], -11.4%; in assay [5] it was -9.63%.

As for `C[C@H](N)CN1CCc2ccc(Br)cc21`, the activity change, negative = inhibition in assay [1] is -3.13%; in assay [2] it was 14.8%; in assay [3] it was 6.74%; in assay [4], -3.06%; in assay [5], -0.563%.

Turning to `CC[C@@H]1C[C@H]2CC[C@H](O2)[C@H](C)C(=O)O[C@@H](C)C[C@@H]2CC[C@@H](O2)[C@@H](C)C(=O)O[C@H](C)C[C@H]2CC[C@H](O2)[C@H](C)C(=O)O[C@@H](C)C[C@@H]2CC[C@@H](O2)[C@@H](C)C(=O)O1`, the activity change, negative = inhibition is 4.66% in assay [1]; 11.3% in assay [2]; 6.49% in assay [3]; -4.87% in assay [4]; 5.63% in assay [5].
